In patent US20130288895A1, “METHODS AND COMPOSITIONS FOR WEED CONTROL” (priority 2011, published 2013):

B1: CP4-12: dsRNA trigger, 82-462 of SEQ ID NO:1 (CP4 EPSPS), a 381 polynucleotide (nucleic acid, listed as Agrobacterium tumefaciens)
DNA: ATCTCCCACCGGTCCTTCATGTTCGGCGGTCTCGCGAGCGGTGAAACGCGCATCACCGGCCTTCTGGAAGGCGAGGACGTCATCAATACGGGCAAGGCCATGCAGGCCATGGGCGCCAGGATCCGTAAGGAAGGCGACACCTGGATCATCGATGGCGTCGGCAATGGCGGCCTCCTGGCGCCTGAGGCGCCGCTCGATTTCGGCAATGCCGCCACGGGCTGCCGCCTGACCATGGGCCTCGTCGGGGTCTACGATTTCGACAGCACCTTCATCGGCGACGCCTCGCTCACAAAGCGCCCGATGGGCCGCGTGTTGAACCCGCTGCGCGAAATGGGCGTGCAGGTGAAATCGGAAGACGGTGACCGTCTTCCCGTTACCTTG
modifications: dsRNA form
B2: CP4-34: dsRNA trigger, 594-1043 of SEQ ID NO:1 (CP4 EPSPS), a 450 polynucleotide (nucleic acid, listed as Agrobacterium tumefaciens)
DNA: CGATCATACGGAAAAGATGCTGCAGGGCTTTGGCGCCAACCTTACCGTCGAGACGGATGCGGACGGCGTGCGCACCATCCGCCTGGAAGGCCGCGGCAAGCTCACCGGCCAAGTCATCGACGTGCCGGGCGACCCGTCCTCGACGGCCTTCCCGCTGGTTGCGGCCCTGCTTGTTCCGGGCTCCGACGTCACCATCCTCAACGTGCTGATGAACCCCACCCGCACCGGCCTCATCCTGACGCTGCAGGAAATGGGCGCCGACATCGAAGTCATCAACCCGCGCCTTGCCGGCGGCGAAGACGTGGCGGACCTGCGCGTTCGCTCCTCCACGCTGAAGGGCGTCACGGTGCCGGAAGACCGCGCGCCTTCGATGATCGACGAATATCCGATTCTCGCTGTCGCCGCCGCCTTCGCGGAAGGGGCGACCGTGATGAACGGTCTGGAAGAACT
modifications: dsRNA form

How the values were obtained:
[1] = tested on: glyphosate-resistant Palmer amaranth (Amaranthus palmeri R-22) plants; test: EPSPS promoter tiling: 25-mer ssDNA oligonucleotides hand applied, then 2× WeatherMax; conditions: for percent control: 16 nmol/plant followed by 2× WMax, Palmer R-22, ten days after treatment, in combination with dsRNA5 (EPSPS) and dsRNATIF1; for herbicidal control of Palmer amaranth, second round of efficacy testing: 12 individual oligonucleotides of sets 8 and 13
Excerpt: One non-limiting example of a method for selecting a polynucleotide for use in a composition for topical application to the surface of a parent plant involves the mapping of efficacious oligonucleotide or polynucleotide sequences (or segments of sequences) using a whole-gene (or full-length reference sequence) tiling array approach. The available full-length reference sequence is divided into “tiling sequences” or segments of 25 contiguous nucleotides along the entire length of the available sequence. For convenience, an Excel template was developed to allow convenient generation of sense and anti-sense tiling sequences for any given full-length reference sequence, providing as output a list of sense and anti-sense sequences for submission to oligonucleotide synthesis providers such as IDT (Integrated DNA Technologies, Coralville, Iowa). Oligonucleotides corresponding to each 25-mer tiling sequence (in sense, anti-sense, or both sense and anti-sense orientation) are synthesized for efficacy screening. Oligonucleotides are screened in sets. It is clear to one skilled in the art that the tiling sequences can be of sizes other than 25 nucleotides (such as about 18, 19, 20, 21, 22, 23, or 24 nucleotides, or larger than 25 nucleotides), that these tiling sequences can be designed to be contiguous segments with no overlap or to overlap adjacent segments, and that such tiling sequences can be grouped into sets of any size. For example, sets of five individual oligonucleotides are pooled into a single polynucleotide composition using 20 mM phosphate buffer and 2 percent w/v ammonium sulfate and 1 percent Silwet L-77, and topically applied to plants at a rate known to be efficacious for the plant species of interest (e.g., 4 nanomoles per plant). Those oligonucleotide sets showing better efficacy are then re-screened by testing the individual component oligonucleotides for efficacy.
A specific example of selecting a polynucleotide for use in a composition for topical application to the surface of a parent plant follows. An EPSPS promoter 1302 nucleotide sequence was identified from genomic sequence of Palmer amaranth (Amaranthus palmeri) as having the sequence SEQ ID NO: 3543. A 1152 nucleotide segment of the 1302 nucleotides EPSPS promoter sequence was used in this example.
The 1152-nt EPSPS promoter sequence was “tiled” (i.e., the full-length sequence covered by overlapping shorter sequences) by 25-mer anti-sense (AS) and sense (S) ssDNAs. A total of 96 25-mer ssDNA oligonucleotides were designed and grouped into 16 sets of 6 ssDNA oligonucleotides each (each set covering 150 contiguous nucleotides of the promoter sequence). The oligonucleotides were synthesized by IDT in 96-well plate format. Oligonucleotide sequences are provided in Table 3 (SEQ ID NO: 3588-3779).
Oligonucleotide sets assigned an even number n contain oligonucleotides with a sequence shifted by 12 or 13 nucleotides (nt) relative to the 3′ end of the oligonucleotides in sets assigned a number equal to (n−1). For example, the oligonucleotide sequences in set number 2 have a sequence shifted by 12 or 13 nt relative to the 3′ end of the oligonucleotides in set number 1.
The ssDNA oligonucleotides were formulated as 100 micromolar (per oligonucleotide) mixtures (each consisting of a set of 6 oligonucleotides) in 20 millimolar phosphate buffer (pH 7.0), 2% ammonium sulfate, 1% Silwet® L-77, and were hand applied by pipetting to the surface of four fully expanded source leaves of glyphosate-resistant Palmer amaranth (Amaranthus palmeri R-22) plants. Each leaf received 10 microliters of 100 micromolar ssDNA solution (a total of 1 nanomole per oligonucleotide per leaf for a total 4 nanomole per oligonucleotide per plant). Silwet-containing buffer without oligonucleotides was applied as a negative control. A composition of four EPSPS short dsRNA1, 3, 4 and 5 (see Example 6) were applied at 4 nm each oligonucleotide per plant as positive control. […]

[2] = tested on: cotton plants transformed with the CP4 EPSPS gene; test: CP4 EPSPS dsRNA triggers plus RoundUp Ultra on transgenic glyphosate tolerant cotton; conditions: trigger 210, 630, 1890 pmol; RoundUp Ultra 1.5 a.e. lb/acre two-three days later; FIG. 3
Excerpt: In this example, a gene coding sequence for Agrobacterium tumefaciens CP4 EPSPS (SEQ ID NO: 1) was targeted with two dsRNA trigger molecules referred to as CP4-12 (82-462 of SEQ ID NO:1) a 381 polynucleotide, and CP4-34 (594-1043 of SEQ ID NO:1) a 450 polynucleotide. Corn and cotton plants that were transformed with the CP4 EPSPS gene and are resistant to glyphosate were planted in pots in a greenhouse along with negative isolines for each and grown to the first true leaf emergence stage then treated with a trigger solution containing 0.5% Silwet L77, 2% ammonium sulfate, 20 mM Na Phoshpate (pH 6.8) at different rates of trigger amount, 0 picomoles (pmol), 210 pmol, 630 pmol and 1890 pmol. For each replication (8-10 plants), two fully expanded cotyledons were treated by pipette with 50 microliters of trigger solution each, then sprayed two-three days later with 1.5 a.e.lb/acre) of RoundUp™ Ultra (glyphosate, Monsanto, St Louis, Mo.). The cotton and corn plants were scored for stunting and injury 7-16 days after spray treatment. FIGS. 2 and 3 show the corn and cotton plant results, respectively. […] The nontransgenic control is labeled “Minus CP4”, these plant were killed by the RoundUp treatment.

Molecule | percent control [1] | herbicidal control of Palmer amaranth, second round of efficacy testing [1] | symptoms observed on the cotton plants [2]
CTCTTTGTTTTTCTTCTGCCAATTT (antisense CTCTTTGTTTTTCTTCTGCCAATTT; DNA, backbone and methylation of C not given here; listed as Amaranthus palmeri) [AS83-DNA-25-wt] | 99% | better herbicidal control | –
aattttgaccttaaaaatatcaatt (antisense AATTTTGACCTTAAAAATATCAATT; DNA, backbone and methylation of C not given here; listed as Amaranthus palmeri) [AS79] | 95% | better herbicidal control | –
acaacttgaatgaattcgagggact (antisense ACAACTTGAATGAATTCGAGGGACT; DNA, backbone and methylation of C not given here; listed as Amaranthus palmeri) [AS48] | – | better herbicidal control | –
agaaccaagttataggctgactttc (antisense AGAACCAAGTTATAGGCTGACTTTC; DNA, backbone and methylation of C not given here; listed as Amaranthus palmeri) [AS44] | – | better herbicidal control | –
ttcaattataatcttaaaggtttca (antisense TTCAATTATAATCTTAAAGGTTTCA; DNA, backbone and methylation of C not given here; listed as Amaranthus palmeri) [AS81] | 98% | better herbicidal control | –
B1 | – | – | severe stunting and death of the apical meristem
B2 | – | – | severe stunting and death of the apical meristem
